Test results as given in PubChem BioAssay (NCATS).
The inconclusive results got no clear call from the source; some entries with a clear call stand among them for comparison. A potency beside an inconclusive call is a rough fit, not a confirmed value. Calls of active or inactive are those of the source. The call rests on the fitted dose curve; in most records, active means well fitted inhibition curve with a large enough effect; inconclusive means small, poorly fitted or top-dose-only effect; inactive means flat fitted curve, though single readings scatter.

What follows are compounds tested on HaCat (assay: Cytotoxic Profiling of Annotated Libraries Using Quantitative High-Throughput Screening (AID 1296008; further: nearly all actives have a fitted effect of over 60% in size)). Conditions: Five cell lines viability, CellTiter-Glo ATP luminescence, 48-72 h; max response: hits give low values.
Outline: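 Cytotoxicity was measured as CellTiter-Glo ATP luminescence, read after 10 min at room temperature. Compound treatment of the cells lasted 48 or 72 hr at 37 degrees Celsius in a qHTS format.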
On the % scale 0 is the no-effect control and ±100 the full control effect; potency means the concentration at half of the fitted maximal effect; tags describe the fitted curve by direction and shape.

Row | SMILES | outcome | Potency | max response
1 | COc1ccc2nccc(C(=O)CC[C@@H]3CCN(CC#Cc4cc(F)cc(F)c4F)C[C@@H]3C(=O)O)c2c1 | inactive |  | 
2 | CCN(CC)CCOc1ccc2c(c1)C(=O)c1cc(OCCN(CC)CC)ccc1-2 |  | inconclusive: 33.5 µM [inhibitor, single point] | 
3 | Cc1c(NC(=O)c2cc(C(N)=O)nc3cc(F)ccc23)c(C(F)(F)F)nn1Cc1ccc(C#N)cc1 |  | inconclusive: 9.68 µM [inhibitor, single point] | 
4 | O=S(=O)(N[C@H]1CCCC[C@@H]1N1CCOCC1)c1ccc(Cl)cc1 | inactive |  | 
5 | CN1CCc2cccc3c2[C@H]1Cc1ccc(O)c(O)c1-3 |  | inconclusive: 11.9 µM [inhibitor, partial curve, poor fit] | 
6 | Cc1ccc(Nc2c(F)cccc2Cl)c(CC(=O)O)c1 |  | inconclusive: 18.4 µM [inhibitor, single point] | 
7 | N#CC(c1ccnc(OCc2ccc(CN3CCOCC3)cc2)n1)c1nc2ccccc2s1 (stereo not given) |  |  | inactive: 0.847%
8 | Cc1nc2c(C(F)(F)F)cccc2nc1-c1ccc(-c2cccc(S(C)(=O)=O)c2)cc1 |  |  | inactive: -0.882%
9 | Cc1cc(C)c(CNC(=O)c2cc(-c3ccc(CN4CCOCC4)cc3)cc3c2cnn3C2CCCC2)c(=O)[nH]1 |  | inconclusive: 37.1 µM [inhibitor, single point] | 
10 | CC(=O)O[C@@](C)(C(=O)/C=C/C(C)(C)O)[C@H]1[C@H](O)C[C@@]2(C)[C@@H]3CC=C4[C@@H](C=C(O)C(=O)C4(C)C)[C@]3(C)C(=O)C[C@]12C |  | active: 1.42 µM | 
